The text below walks through data of PMC4336329 (PLoS ONE, 2015).

Among all 310,000 compounds or so, about 2,200 (0.71%) showed an effect of 50% or more. Effects have a minus sign here. The list shows a part of the results.

Sequence of human ether-à-go-go-related gene (hERG) potassium channel (Q12809 whole entry, looked up): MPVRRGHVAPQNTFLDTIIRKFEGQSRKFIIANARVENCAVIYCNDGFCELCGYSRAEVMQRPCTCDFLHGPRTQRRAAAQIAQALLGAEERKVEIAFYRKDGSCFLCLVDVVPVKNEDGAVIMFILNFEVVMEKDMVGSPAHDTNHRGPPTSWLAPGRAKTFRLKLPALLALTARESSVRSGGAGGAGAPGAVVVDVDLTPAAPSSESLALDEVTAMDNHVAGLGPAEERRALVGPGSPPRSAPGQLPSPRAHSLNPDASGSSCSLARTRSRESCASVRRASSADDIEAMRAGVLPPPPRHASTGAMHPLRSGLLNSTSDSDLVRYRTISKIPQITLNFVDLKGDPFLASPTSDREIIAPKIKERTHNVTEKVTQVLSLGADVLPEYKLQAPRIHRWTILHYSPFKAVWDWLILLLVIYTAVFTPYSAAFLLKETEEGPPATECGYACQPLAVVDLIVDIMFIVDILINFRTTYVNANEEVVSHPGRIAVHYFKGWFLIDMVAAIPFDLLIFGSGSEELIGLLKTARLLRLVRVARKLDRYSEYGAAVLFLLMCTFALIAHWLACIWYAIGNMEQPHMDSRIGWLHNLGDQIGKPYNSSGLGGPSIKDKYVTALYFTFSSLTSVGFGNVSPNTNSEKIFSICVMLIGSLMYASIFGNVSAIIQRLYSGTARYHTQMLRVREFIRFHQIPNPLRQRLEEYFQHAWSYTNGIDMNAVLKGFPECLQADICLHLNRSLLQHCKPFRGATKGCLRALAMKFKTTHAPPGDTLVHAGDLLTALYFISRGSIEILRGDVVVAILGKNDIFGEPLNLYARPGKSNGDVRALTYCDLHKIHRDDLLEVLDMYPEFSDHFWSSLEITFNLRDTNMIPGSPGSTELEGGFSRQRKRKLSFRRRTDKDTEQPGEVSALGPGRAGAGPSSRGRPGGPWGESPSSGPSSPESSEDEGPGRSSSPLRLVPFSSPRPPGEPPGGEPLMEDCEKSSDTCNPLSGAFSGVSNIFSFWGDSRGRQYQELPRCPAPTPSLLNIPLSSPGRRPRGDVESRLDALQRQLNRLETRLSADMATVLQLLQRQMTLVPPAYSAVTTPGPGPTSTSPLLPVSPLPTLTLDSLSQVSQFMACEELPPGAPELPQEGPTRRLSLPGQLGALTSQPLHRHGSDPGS

This test concerns the target human ether-à-go-go-related gene (hERG) potassium channel (human, UniProt Q12809). Kind of test: primary screen, population patch clamp on CHO cells stably expressing hERG.
Consider `CCOC(=O)N/N=C/C(Cl)=C/c1ccccc1`, for which the “hERG current change (%, negative = inhibition) at 1uM” value stood at 4.86%.
The figure for `CCOC(=O)Cn1cnc2sc3c(c2c1=O)CCC3` is 10.3%.
The value for `COc1ccc(S(=O)(=O)Nc2cc3c4c(c2)CCN4C(=O)CC3)cc1` was 11.3%; that for `C[C@H]1CNC(=O)C(=O)N1C[C@H](Cc1ccc(O)cc1)NC(=O)CC12CC3CC(CC(C3)C1)C2` was 12.8%; that for `Cc1ccccc1NC(NC(=O)OCCn1c([N+](=O)[O-])cnc1C)C(Cl)(Cl)Cl` (stereo not drawn) was 7.21%.
Consider `COc1ccc2cc(C3C(C#N)=C(N)OC(C)=C3C(C)=O)c(Cl)nc2c1` (stereo not drawn), for which the “hERG current change (%, negative = inhibition) at 1uM” value is on record as 0.403%.
The value for `O=C(O)C(=O)O.O=[N+]([O-])c1ccc(OCCCCN2CCc3ccccc3C2)cc1` was -81.1%; that for `CCOc1c(CNCCNC(=O)c2nonc2N)cccc1OC.Cl` was 9.48%; that for `CCN1CCN(C(=O)c2ccccc2N(Cc2ccccc2)S(=O)(=O)c2ccc(OC)cc2)CC1` was -21%.
The value for `CCOC(=O)C1=C(COC(=O)/C=C/c2cccc(Cl)c2)NC(=O)NC1C` (stereo not drawn) was 5.95%; that for `CCOc1ccc(OCC)c(S(=O)(=O)NCCCN2CCOCC2)c1` was 9.79%; that for `CCOC(=O)N1CCN(C(=O)c2cc(C)c3c(C)nn(-c4ccccc4)c3n2)CC1` was -5.58%.
The value for `CCN(CC)c1ccc(-n2cc3c(=O)n(C)c(=O)n(C)c3c2)cc1` was 8.11%; that for `C/C=C/C=C/C(=O)O` was 9.87%; that for `COc1ccc(-c2oc3ccc(-c4ccc5c(c4)OCO5)cc3c2C#CC2(O)CCCCC2)cc1` was 7.95%.
Consider `CCn1cc(CN2CCCC(C(=O)c3ccc(-c4ccccc4)c(F)c3)C2)cn1` (stereo not drawn), for which the “hERG current change (%, negative = inhibition) at 1uM” value is given as -12.4%.
For `CSc1ccccc1NC(=O)CN1CCCCC1`, the “hERG current change (%, negative = inhibition) at 1uM” value is 11.5%.
The value for `NC(=O)C1CCN(c2ncnc3c(-c4ccccc4)nsc23)CC1` was 12.1%; that for `CCN(CC)c1ccc(NC(=O)CSc2nc(C3CC3)nc3ccccc23)cc1C` was 6.53%; that for `COc1cccc(C2(C)NC(=O)N(CC(=O)c3cc(C)n(C4CC4)c3C)C2=O)c1` (stereo not drawn) was 6.98%.
Consider `Cc1cc(=O)[nH]c(SCC(=O)Nc2ccc(S(=O)(=O)N3CCOCC3)cc2)n1`, for which the “hERG current change (%, negative = inhibition) at 1uM” value worked out at 1.3%.
As for `CC(NC=O)c1nc2ccccc2n1CCc1ccccc1` (stereo not drawn), the “hERG current change (%, negative = inhibition) at 1uM” value stood at 11.9%.
The value for `CC(Oc1ccc(S(=O)(=O)N2CCCC2)cc1[N+](=O)[O-])C(=O)N(C)c1ccccc1` (stereo not drawn) was 3.29%.
For `COC(=O)c1ccccc1NC1OC(=O)c2ccccc21` (stereo not drawn), the “hERG current change (%, negative = inhibition) at 1uM” value came to 12.1%.
On to `O=C1CC(c2ccco2)CC(O)=C1C=NCCN1CCNCC1` (stereo not drawn), for which the “hERG current change (%, negative = inhibition) at 1uM” value was 9.03%.
Regarding `O=C1NC(c2ccc(Br)cc2)=N/C1=C/c1ccco1`, the “hERG current change (%, negative = inhibition) at 1uM” value is 7.07%.
The value for `C#CCCc1cscc1/C=[N+](\[O-])c1ccc(C(=O)OCC)cc1` was 17.6%; that for `Cc1ccc(N(C(=O)c2csnn2)C(C(=O)NC(C)(C)C)c2cccnc2)cc1` (stereo not drawn) was 4.75%.
Regarding `O=c1[nH]cnc2c1ncn2[C@@H]1O[C@H](CO)[C@@H](O)[C@H]1O`, the “hERG current change (%, negative = inhibition) at 1uM” value is on record as 5.08%.
On to `CC(=O)CS(=O)(=O)c1ccc(Oc2ccc(S(=O)(=O)CC(C)=O)cc2)cc1`, for which the “hERG current change (%, negative = inhibition) at 1uM” value is given as 13.1%.
The value for `Cc1ccc(-n2c(C)nc3c(cnn3-c3ccc(C)c(C)c3)c2=O)cc1C` was 16.2%; that for `Cc1ccccc1Cn1nnc2c1C(=O)c1ccccc1C2=O` was -0.165%.
`CCOc1cccc(CN(CC)CC2CCCN(CCc3cccc(OC)c3)C2)c1O` (stereo not drawn): the “hERG current change (%, negative = inhibition) at 1uM” value was -13%.
Turning to `Cc1nn(CC(=O)NNC(=O)c2cccc(Br)c2)c(C)c1[N+](=O)[O-]`, the “hERG current change (%, negative = inhibition) at 1uM” value is on record as 8.74%.
The value for `CN(CCc1ccccc1)C(=O)c1cc(COc2ccc(F)cc2Cl)on1` was 13.5%; that for `O=C(Cc1ccc(Cl)cc1)Nc1ccc(C(=O)N2CCOCC2)cc1` was 10.8%; that for `COc1ccc(/C=C2/C(=O)N(c3ccccc3)N=C2C)c(OC)c1` was 18.1%.
Consider `O=C(N/N=C/c1cc(Br)cs1)c1ccccc1[N+](=O)[O-]`, for which the “hERG current change (%, negative = inhibition) at 1uM” value was determined as 10.6%.
For `Cc1cc(NC(=O)COc2coc(CN3CCN(c4ccccc4F)CC3)cc2=O)no1`, the “hERG current change (%, negative = inhibition) at 1uM” value was 4.64%.
Take `Brc1ccc(-c2c(-c3ccsc3)sc3ccccc23)cn1`: the “hERG current change (%, negative = inhibition) at 1uM” value came out at 14.1%.
The value for `O=C(CN1CCN(CC(=O)Nc2ccc3c(c2)OCO3)CC1)Nc1ccc(F)cc1` was -83.5%.
The value for `COc1ccc(S(=O)(=O)NCCN2CCOCC2)cc1[N+](=O)[O-]` was 14.3%; that for `CCOc1ccc(C(C(=O)NC2CCCC2)N(C(=O)CNC(=O)c2ccco2)c2cccnc2)cc1` (stereo not drawn) was 10.5%; that for `C[C@H](NC(=O)C1CC(=O)N(c2ccc3c(c2)OCCO3)C1)C(=O)NCc1ccco1` (stereo partly drawn) was 21.6%.
In the case of `N#CCc1ccc(NC(=O)Nc2cccc3ccccc23)cc1`, the “hERG current change (%, negative = inhibition) at 1uM” value was 11.7%.
Regarding `CCN(CC)C(=O)c1ccc(-c2nnc(Nc3ccc(O)cc3)c3ccccc23)cc1`, the “hERG current change (%, negative = inhibition) at 1uM” value is on record as 17.1%.
The value for `COc1ccccc1NC(=S)N1CCN(C(=O)c2ccco2)CC1` was 15.6%.
The value for `CC(C)(CNC(=O)C1CCCC1)CNC(=O)C1CCCC1` was 13%; that for `Cc1ccccc1C(=O)NC(CC(C)C)C(=O)OCC(=O)c1c(N)n(C)c(=O)n(C)c1=O` (stereo not drawn) was 11.7%; that for `COc1ccccc1NC(=O)c1cc2ccc(O)cc2o/c1=N\O` was 2.95%.
Regarding `Cn1nc(C(C)(C)C)cc1C(=O)Sc1cccc(Br)c1`, the “hERG current change (%, negative = inhibition) at 1uM” value amounted to 2.73%.
The value for `COc1cccc(CNC(=O)C2CCN(S(=O)(=O)c3ccc4c(c3)CCC(=O)N4)CC2)c1` was 17.5%.
The value for `CS(=O)(=O)N1CCN(C2C3CC4CC(C3)CC2C4)CC1.O=C(O)C(=O)O` (stereo not drawn) was 16.5%; that for `C=C(C)CSc1nc(N)cc(=O)[nH]1` was 2.51%.
Turning to `COc1ccc(N2CCN(C(=N)/C(C(C)=O)=C(\C)O)CC2)cc1`, the “hERG current change (%, negative = inhibition) at 1uM” value was 19.3%.
The figure for `Cc1ccc(NC(=O)CNC(=O)c2ccccc2F)cc1Cl` is 2.42%.
Take `Cc1cccc(C(=O)NNC(=O)c2c(-c3ccccc3Cl)noc2C)c1O`: the “hERG current change (%, negative = inhibition) at 1uM” value is given as 10.6%.
The value for `O=C1N(c2ccccc2)C[C@@H]2C[C@@H](c3cccc4c3OCO4)N3CCC[C@@]123` was 23.3%; that for `Cc1cc(Cl)ccc1NC(=O)CCCN1C(=O)CCC1=O` was 11.3%; that for `CCCCn1c(N)c(N(C)C(=O)C2CCCC2)c(=O)[nH]c1=O` was 9.28%.
The value for `COc1ccc(CSc2nncn2C)cc1F` was 3.27%; that for `NC(=O)CC(NC(=O)Cc1cccc2ccccc12)c1ccc(N2CCC(Cc3ccccc3)CC2)c([N+](=O)[O-])c1` (stereo not drawn) was 12.6%; that for `Cc1cc(C(=O)OCC(=O)Nc2nc(-c3ccccc3)cs2)c(C)o1` was 13.9%.
Regarding `O=C(O)/C=C/c1cn(-c2ccccc2)nc1-c1cccs1`, the “hERG current change (%, negative = inhibition) at 1uM” value came to 15.4%.
Take `Cc1cc(-n2nnc3ccccc32)nc2ccccc12`: the “hERG current change (%, negative = inhibition) at 1uM” value was 11.2%.
For `C[C@]12C(=O)N(c3ccccc3)C(=O)N1[C@@H]1c3ccccc3OC[C@@H]1[C@H]2c1ccccc1`, the “hERG current change (%, negative = inhibition) at 1uM” value stood at 11.3%.
The figure for `CN(C)S(=O)(=O)c1ccc(N=Cc2c(C(F)(F)F)[nH][nH]c2=O)cc1` is 18.6%; for `O=C(c1ccco1)N1CCCN(C(=O)c2ccco2)CC1` it is 8.78%.
As to `CCc1nc(Nc2cc(OC)ccc2OC)c2oc3ccccc3c2n1.Cl`, the “hERG current change (%, negative = inhibition) at 1uM” value was determined as 7.8%.
The figure for `CSc1ccc(CNC(=O)C2CCC(=O)N(Cc3cccc(F)c3)C2)cc1` (stereo not drawn) is -23.4%; for `Cc1nn(-c2ccccc2)c(N)c1Sc1ccc([N+](=O)[O-])cc1` it is -16.3%.
For the compound `COCCNC(=O)COc1ncnc2ccc(Br)cc12`, the “hERG current change (%, negative = inhibition) at 1uM” value stood at 7.06%.
`CCN1C(=O)N[C@H](c2ccc(Br)cc2)C(C(=O)OC)=C1C`: the “hERG current change (%, negative = inhibition) at 1uM” value is 12.6%.
The value for `O=C(NNC(=O)C12CC3CC(CC(O)(C3)C1)C2)c1csc(N2CCOCC2)n1` was 15.6%; that for `CCc1cc2c(N3CCCCC3)ncnc2s1.Cl` was 5.54%; that for `CCOC(=O)c1ccc(N=c2sc(C(=O)OC)cc(=O)n2Cc2ccc3c(c2)OCO3)cc1` was 13.5%.
Consider `Cc1c(C(=O)N2CCC(Cc3ccccc3)CC2)cccc1[N+](=O)[O-]`, for which the “hERG current change (%, negative = inhibition) at 1uM” value amounted to 1.11%.
For `COc1ccc(OCC2CCCN(Cc3nc(CC4CC4)no3)C2)cc1` (stereo not drawn), the “hERG current change (%, negative = inhibition) at 1uM” value was -0.786%.
In the case of `O=C(c1ccc2ccccc2c1)C1CCCN(C(=O)CCn2cnnn2)C1` (stereo not drawn), the “hERG current change (%, negative = inhibition) at 1uM” value was 3.91%.
For `CC1CCN(c2oc(-c3ccccc3F)nc2C#N)CC1`, the “hERG current change (%, negative = inhibition) at 1uM” value came to 0.0562%.
In the case of `C=CCn1c(CCNC(=O)c2cccs2)nnc1SCC(=O)Nc1cccc(F)c1`, the “hERG current change (%, negative = inhibition) at 1uM” value was -9.74%.
`Cc1ccc(NS(=O)(=O)c2c(C)nc3sccn3c2=O)cc1`: the “hERG current change (%, negative = inhibition) at 1uM” value amounted to 0.642%.
The value for `O=C(O)C1CCCCC1C(=O)NCCc1c[nH]c2ccccc12` (stereo not drawn) was 13.5%.
`COC(=O)c1ccc(N2CCOCC2)c(NC(=O)c2ccc3c(c2)OCCO3)c1`: the “hERG current change (%, negative = inhibition) at 1uM” value came out at 6.75%.
On to `C=CCn1nnc2sc3c(c2c1=O)CCC(C)C3` (stereo not drawn), for which the “hERG current change (%, negative = inhibition) at 1uM” value is 17.8%.
Consider `Cc1c(NS(=O)(=O)c2cccc(C(=O)NCc3ccccc3)c2)c(=O)n(-c2ccccc2)n1C`, for which the “hERG current change (%, negative = inhibition) at 1uM” value amounted to 12.4%.
As to `O=C(N/N=C/c1ccc(Cl)c([N+](=O)[O-])c1)c1cc(-c2ccc3c4c(cccc24)CC3)n[nH]1`, the “hERG current change (%, negative = inhibition) at 1uM” value worked out at 8.79%.
